Out of some 360,000 compounds screened, about 780 (0.22%) were called active. This list was built around the results that the source calls inconclusive (neither active nor inactive); the mix of calls is not that of the screen. Rule as the data show it: active = inhibition above about 8.5% (passing the limit was not always enough); inconclusive = no clear call, values can overlap the other calls.
tested on: Mycobacterium tuberculosis FadD28 fatty-acid-AMP ligase; test: inhibitors of FadD28 bisubstrate probe binding, primary screen, biochemical, fluorescence polarization, single point (AID 588549); conditions: at 12.5 µM, active compounds read high

| SMILES | inhibition |
| --- | --- |
| Cc1ccc(NC(=O)COC(=O)c2cccc(OC(F)F)c2)cc1S(=O)(=O)N1CCCCC1 | inconclusive: 8% |
| Cc1cc(C)c2cccc(N)c2n1 | inactive: -0.862% |
| COc1ccc(OC)c(NC(=O)c2ccc(NC(C)=O)cc2)c1 | inconclusive: 6.98% |
| Nc1ccc2c(c1)oc1ccccc12 | inactive: 0.179% |
| CCOc1cc(/C=C(/C#N)C(=O)Nc2ccc(O)cc2)cc(Br)c1O | inconclusive: 7.14% |
| Cc1ccccc1OCC(=O)Nc1nnc(COc2ccccc2)s1 | inconclusive: 2.64% |
| Cc1cccc(C)c1NC(=O)CSc1nnc(-c2ccco2)c(-c2ccco2)n1 | inconclusive: 10.5% |
| c1cn2cc(-c3ccc4c(c3)OCO4)nc2s1 | inconclusive: 5.21% |
| COc1cc(C2C(C#N)=C(N)OC3=C2C(=O)CCC3)c([N+](=O)[O-])cc1OC (stereo not given) | active: 20.7% |
| Cc1ccc(S(=O)(=O)Oc2ccccc2/C=N/Nc2ccc(C(=O)O)cc2)cc1 | active: 9.15% |
| Cc1csc(N/N=C/c2ccc(O)c([N+](=O)[O-])c2)n1 | active: 9.32% |
| COc1cc(OC)c(OC)cc1/C=C1\Oc2cc(OCC(=O)N3Cc4ccccc4C[C@H]3C(=O)O)ccc2C1=O | active: 11.8% |
| O=C(CNC(=O)c1ccco1)Nc1ccc(N2CCCCCC2)cc1 | inactive: -0.522% |
| Brc1ccc(-n2cnc(-c3ccccc3)c2)cc1 | inactive: -1.98% |
| CC(=O)Nc1sc(N/N=C\c2ccccc2)nc1-c1cccs1 | inconclusive: 4.5% |
| CCCCN1C2=C(C(=O)CCC2)C(c2ccc(Cl)c(Cl)c2)C2=C1c1ccccc1C2=O (stereo not given) | inactive: -4.44% |
| CC(=O)Nc1cccc(-c2csc(Nc3cc(C)ccn3)n2)c1 | inconclusive: 15.8% |
| CCOc1ccc(NC(=O)Cn2sc3nc(C)cc(C)c3c2=O)cc1 | inconclusive: 3.84% |
| COc1cc(N)c2ncccc2c1Cl | inactive: -0.117% |
| COc1ccccc1NCc1nnc(SCC(=O)N/N=C/c2ccco2)n1-c1ccc(Cl)cc1Cl | inconclusive: 7.71% |
| CC1CN(C(=O)[C@@H]2CCCN2S(=O)(=O)c2ccc(Cl)cc2)CC(C)O1 (stereo not given in full) | inactive: 0.0825% |
| CC1=C(C(=O)OCCCBr)C(c2ccc3c(c2)OCO3)NC(=O)N1 (stereo not given) | inconclusive: 3.31% |
| Cc1ccc(C(=O)n2nc(C#N)c(C#N)c2N)cc1 | inconclusive: 14.1% |

| SMILES | inhibition |
| --- | --- |
| CC(C)Cc1ccc(-c2cc3nc(NCC4CC4)ccn3n2)cc1 | inactive: -0.675% |
| Cc1ccnc(Nc2nc(-c3c(C)nc4sccn34)cs2)c1 | inconclusive: 5.44% |
| CC(C)(C)NS(=O)(=O)c1ccc(NC(=O)CS(=O)(=O)Cc2ccccc2)cc1 | inconclusive: 7.2% |
| CN(C)c1ccc(C=NNc2ccccn2)c(Cl)c1 | inactive: -0.899% |
| NC(=O)N/N=C/c1ccc(-c2cccc(C(F)(F)F)c2)o1 | inactive: -3.66% |
| O=c1cc(-c2ccccc2Cl)oc2c(NS(=O)(=O)c3cc(Cl)cc(Cl)c3O)ccc(O)c12 | active: 13% |
| O=C(Cn1cnc2c(oc3nc4c(cc32)CCCC4)c1=O)Nc1cccc(Cl)c1 | inconclusive: 6.07% |
| CCOC(=O)Nc1cc(N)ncn1 | inconclusive: 5.48% |
| Cc1cc(/C=N/Nc2ccc([N+](=O)[O-])cn2)c(C)n1-c1cccc(C(=O)O)c1 | inconclusive: 9.96% |
| Cc1[nH]n(-c2ccccc2)c(=O)c1N=Nc1c(Cl)cccc1Cl | inconclusive: 5.55% |
| O=C(O)c1ccc(N/N=C/c2cc3cc4c(cc3nc2Cl)OCCO4)cc1 | inconclusive: 4.16% |
| CC(=O)c1ccc(NC(=O)Nc2ccc(NS(=O)(=O)c3ccc(C)cc3)cc2)cc1 | active: 11.2% |
| COc1cc(/C=N/NC(=O)c2ccccc2NS(=O)(=O)c2cccs2)ccc1O | inactive: 1.01% |
| O=C1NC(=O)N(Cc2ccco2)C(=O)/C1=C/C=C/c1ccco1 | inconclusive: 7.05% |
| COc1ccc(CCNC(=O)CN(c2ccc(C)cc2)S(=O)(=O)c2c(C)noc2C)cc1OC | inconclusive: 5.2% |
| O=C(NCCS(=O)(=O)NCCc1ccccc1)c1ccc2c(c1)OCO2 | inactive: -2.44% |
| O=C(NNC(=O)C1CC=CCC1)c1ccccc1Cl (stereo not given) | inconclusive: 4.65% |
| Cc1ccc(-n2nnnc2SCC(=O)Nc2nc(-c3ccc(F)cc3)cs2)cc1C | inconclusive: 10.4% |
| O=C1CC(C(=O)Nc2ccc(Br)cc2)S/C(=N\N=C\c2ccco2)N1 (stereo not given) | inconclusive: 5.75% |
| CC1CCCCN1Cc1c(O)ccc2c(=O)c(-c3nc4ccccc4s3)c(N)oc12 (stereo not given) | inconclusive: 7.21% |
| COCCCNc1nc2c(c(=O)n(Cc3ccc(F)cc3)c(=O)n2C)n1C | inactive: -2.52% |
| O=C(CCl)c1ccc(Cc2ncc(C(F)(F)F)cc2Cl)s1 | inactive: -3.21% |
| N/C(CSc1ccc(Cl)cc1)=N\NC(=O)c1ccncc1 | inconclusive: 5.71% |

| SMILES | inhibition |
| --- | --- |
| Cc1oc(-c2cccs2)nc1CSCC(=O)NC1CC1 | inactive: -0.686% |
| COC(=O)c1ccccc1NC(=O)c1cnc2sccn2c1=O | inactive: -3.2% |
| CCCCOc1ccc2c(c1)C(=O)c1cc(O)ccc1-2 | inactive: -1.34% |
| CC(C)=CCC/C(C)=C/CC/C(C)=C/COc1ccc2ccc(=O)oc2c1 | inactive: -2.88% |
| COc1cc(NC(=O)C2CCCN(c3ncnc4c3nc3n4CCCCC3)C2)cc(OC)c1OC (stereo not given) | inactive: -2.34% |
| COc1cccc(-c2cc(CNC(=O)[C@H]3O[C@@H](n4ccc(N)nc4=O)[C@H](O)[C@@H]3O)no2)c1 | inactive: -1.05% |
| Cc1cc(=O)oc2cc(OC(C)C(=O)O)c(Cl)cc12 (stereo not given) | inactive: -6.25% |
| Cn1nnc2cc(C(=O)N3CCN(c4ccccn4)CC3)ccc21 | inactive: -2.38% |
| COc1ccc(-c2cc(C(F)(F)F)c3c(=O)n(-c4ccccc4)[nH]c3n2)cc1 | inconclusive: 7.25% |
| N#Cc1ccccc1NC(=O)CNc1ccc(Cl)c(C(F)(F)F)c1 | inconclusive: 5.53% |
| Cc1ccc(-c2[nH]c(-c3ccc(C(=O)O)cc3)nc2-c2ccccc2)cc1 | inconclusive: 8.26% |
| C/C(=N\Nc1ccc(Cl)c(C(=O)O)c1)c1ccc[nH]1 | active: 27.7% |
| CC1=Nc2ccccc2/C1=C/c1sc(=S)n(-c2cccc(C(=O)O)c2)c1O | inconclusive: 13.4% |
| Cc1nc2c(C(=O)NCCC3=CCCCC3)c[nH]n2c(=O)c1Cl | inconclusive: 6.29% |
| O=S(=O)(Nc1nc2ccccc2nc1Nc1ccc2c(c1)OCCO2)c1cccs1 | inactive: 5.21% |
| Cc1cc(S(=O)(=O)N(Cc2cccs2)Cc2ccccc2F)ccc1-n1cnnn1 | inconclusive: 7.27% |
| O=C1/C(=C/C=C/c2ccco2)SC(=S)N1c1ccc(O)cc1 | active: 17.7% |
| Nc1ccccc1C#Cc1ccc([N+](=O)[O-])cc1 | inconclusive: 2.98% |
| CCOc1ccc2oc(C(=O)OCC(=O)N3CC(C)OC(C)C3)c(C)c2c1 (stereo not given) | inactive: -1.55% |
| CCCCn1nc2cc(C(=O)NCc3cc(C(F)(F)F)cc(C(F)(F)F)c3)ccc2c1OCC | inactive: -1.99% |
| COc1ccc(CN2CCC(C(=O)Nc3ccc(Oc4cccnc4)cc3)CC2)c(C)c1C | inconclusive: 4.63% |
| O=C(C[n+]1ccc(CCSc2ccc(F)cc2)cc1)c1ccccc1 | inactive: 0.524% |
| S=C(NCCCN1CCOCC1)Nc1ccc(Cl)cc1Cl | inactive: -2.27% |

| SMILES | inhibition |
| --- | --- |
| COC(=O)Cc1cc(=O)n(-c2nc3ccccc3s2)[nH]1 | inconclusive: 7.68% |
| Cc1ccccc1-c1nnc(-c2cccc3ccccc23)o1 | inconclusive: 5.19% |
| CCCSC1=N/C(=C\C=C\c2ccco2)C(=O)S1 | active: 14.9% |
| CCOC(=O)C1CCCN(c2ccc([N+](=O)[O-])c3nonc23)C1 (stereo not given) | active: 47% |
| O=C(CNc1cccc2ccccc12)N/N=C/c1ccc(C(=O)O)cc1 | active: 38.2% |
| CCOC(=O)c1cc(NC(=O)c2ccc(Cl)cc2)c(=O)n2c1oc1ccc(Cl)cc12 | inconclusive: 4.53% |
| CCOC(=O)c1cc(-c2ccc(/C=C3/C(=O)NC(=O)C(C#N)=C3C)o2)ccc1Cl | active: 15.2% |
| O=C(CSc1cccc2cccnc12)Nc1ccccc1F | inactive: -2.32% |
| Cc1ccc(C(=O)N/C(=C\c2cccnc2)c2nc3ccccc3[nH]2)cc1 | inactive: -0.382% |
| CCCCCC(=O)Nc1cc(S(=O)(=O)O)cc2cc(S(=O)(=O)O)cc(O)c12 | active: 35% |
| C=CCOc1ccc(C=NNc2ccc(S(=O)(=O)Nc3ccccc3C(=O)O)cc2[N+](=O)[O-])cc1OC | active: 31.6% |
| COc1cccc(NC(=O)CN(C)C(=O)c2cc3c(s2)CCC(C)C3)c1 (stereo not given) | inconclusive: 7.8% |
| Cc1n[nH]c(=O)c2c(NC(=O)CSc3nc4ccccc4c(=O)n3CCCOC(C)C)oc(C)c12 | inactive: -2.56% |
| CC(C)(C)c1ccc(NC(=S)NCc2cccs2)cc1 | active: 42.1% |
| CC1(c2ccc(OC(F)F)cc2)NC(=O)N(CC(=O)Nc2ccc3[nH]c(=O)[nH]c3c2)C1=O (stereo not given) | active: 11.8% |
| C/C(Cl)=C/Cn1c(SC(C)C)nc2c1c(=O)[nH]c(=O)n2C | inconclusive: 4.83% |
| NC(COCc1ccccc1)c1csc(NC(=O)Nc2cccc(Cl)c2)n1 (stereo not given) | inconclusive: 4.73% |
| COc1cc2c(cc1OC)C(=O)C(Br)CC2 (stereo not given) | inconclusive: 15.7% |
| CSc1ccc(/C=N/Nc2cccc(C(=O)O)c2)cc1 | active: 12.8% |
| C/C(=N\NS(=O)(=O)c1c(C)cc(C)cc1C)c1ccncc1 | inactive: -2.74% |
| O=C(Nc1nnc(/C=C/c2ccccc2)s1)c1ccco1 | inactive: -1.99% |
